Laboratory results reported in PubChem BioAssay AID652104 (National Center for Advancing Translational Sciences (NCATS), 2013).
Screen size: about 410,000 compounds; about 7,200 (1.8%) were called active. Inconclusive means that the source gave no clear call. Such entries were picked first, then a sample of the others. Calls come from the whole dose curve; as a rule, active = well fitted activation curve with a large enough effect; inconclusive = small, poorly fitted or top-dose-only effect, or another doubt; inactive = no such curve, though single readings can be large or run the other way. No potency is given beside an inconclusive call; the fits are too rough.

Experiment: qHTS of TDP-43 Inhibitors; note: nearly all actives have a fitted effect of over 50% in size; for growth rescue (activation): % of control where 0% means no effect
Settings: TDP-43 expressing yeast growth rescue, BacTiter-Glo, 24 h; growth rescue (activation): at 46.1 µM (top of the series) unless noted
Outline: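 In this qHTS, compounds that restore growth of yeast expressing TDP-43 appear as activators. Cells (OD600=0.02, galactose medium, raffinose-pregrown) are incubated with compound 24 hr at 30 deg C and growth is quantified by BacTiter-Glo.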
Potency is the fitted concentration of half-maximal effect; tags give direction and shape of the fitted curve.

Question: For `Cc1cc(C)n(CC(O)Cn2c3ccc(Br)cc3c3cc(Br)ccc32)c(=O)n1` (stereo unspecified), which “growth rescue (activation)” value is on record?
Answer: inactive: -14.8%

Question: For `CCOC(=O)C(Cc1ccccc1)C(=O)Nc1ccccc1C` (stereo unspecified), which Potency is on record?
Answer: inconclusive [activator, single point]

Question: For `COc1ccc(-c2nc(C#N)c(NCc3ccccc3Cl)o2)cc1OC`, which “growth rescue (activation)” value is on record?
Answer: inactive: -17.1%

Question: For `Cc1nn2c(-c3ccccc3)nnc2c2ccccc12`, which Potency is on record?
Answer: active: 17.8 µM

Question: For `COc1ccccc1N1CCN(C(=O)Cn2cnc3onc(-c4ccc(F)cc4)c3c2=O)CC1`, which Potency is on record?
Answer: inconclusive [activator, partial curve]

Question: With `Brc1ccccc1OCCCn1cnc2ccccc21` as the molecule, how does the Potency read?
Answer: inconclusive [activator, single point]

Question: For `Cc1nc(NCCc2ccccc2)c(C#N)c(C)c1[N+](=O)[O-]`, which Potency is on record?
Answer: inconclusive [activator, partial curve]

Question: With `Cc1cccc(N2CCN(c3nc4ccc(Cl)cc4n4cnnc34)CC2)c1C` as the molecule, how does the Potency read?
Answer: inconclusive [activator, partial curve]

Question: For `Cc1nnc(SCc2nc(N)nc(Nc3ccccc3)n2)s1`, which “growth rescue (activation)” value is on record?
Answer: inactive: -3.65%

Question: Which Potency does the source give for `O=S(Cc1ccc(Br)cc1)Cc1nnc(SCc2ccc(Br)cc2)n1-c1ccccc1` (stereo unspecified) here?
Answer: inconclusive [activator, single point]

Question: Which Potency does the source give for `CCN(CC)C1CCN(C(=O)c2ccc(OC3CCN(C(=O)CCOC)CC3)cc2)C1` (stereo unspecified) here?
Answer: inconclusive [activator, partial curve, poor fit]

Question: With `Cc1ccc(C(=O)Nc2nc(-c3ccc([N+](=O)[O-])cc3)cs2)o1` as the molecule, how does the “growth rescue (activation)” value read?
Answer: inactive: 2.04%

Question: With `COc1cccc(Nc2ncccc2C(=O)Nc2ccccc2)c1` as the molecule, how does the Potency read?
Answer: active: 22.4 µM

Question: Which Potency does the source give for `O=[N+]([O-])c1ccccc1Nc1ccccc1` here?
Answer: inconclusive [activator, partial curve]

Question: With `Cc1cc(C)n(-c2ccc(Cl)c(C(=O)NCc3ccccc3)n2)n1` as the molecule, how does the Potency read?
Answer: inconclusive [activator, partial curve]

Question: For `Cc1cccc(C(=O)N/N=C/c2coc3ccccc3c2=O)c1`, which Potency is on record?
Answer: inconclusive [activator, single point]

Question: Which Potency does the source give for `C=CCn1c(SCCNC(C)=O)nc2cc(-c3ccccc3)sc2c1=O` here?
Answer: inconclusive [activator, single point]

Question: For `Cn1cnnc1SCC(=O)Nc1ccccc1`, which Potency is on record?
Answer: inconclusive [activator, partial curve, poor fit]

Question: Which Potency does the source give for `CC(=O)OC[C@@H]1CN(Cc2ccccc2)C[C@H](n2cnc3c(N4CCN(c5ccccc5)CC4)ncnc32)O1` here?
Answer: active: 17.8 µM

Question: With `O=C(NCCc1ccccc1)c1nnc(Cc2cccc(F)c2)o1` as the molecule, how does the Potency read?
Answer: inconclusive [activator, partial curve]

Question: For `COc1ccc(-c2nc(C)c(CCNS(=O)(=O)c3cc(C)c(C)cc3C)s2)cc1`, which Potency is on record?
Answer: inconclusive [activator, single point]

Question: Which “growth rescue (activation)” value does the source give for `Cc1ccc(NC(=O)CSc2nnc(-c3ccco3)c(-c3ccco3)n2)cc1` here?
Answer: inactive: -3.09%

Question: For `Cc1ccc(-c2nnc(SCc3cccc(C#N)c3)o2)cc1`, which Potency is on record?
Answer: inconclusive [activator, full curve]

Question: For `COc1nc(N(c2ccccc2)c2ccccc2)nc(-n2ccnc2)n1`, which Potency is on record?
Answer: inconclusive [activator, full curve]

Question: Which growth rescue (activation) does the source give for `CC1C(c2ccccc2)OCCN1C(=S)Nc1ccc(S(=O)(=O)N2CCCCC2)cc1` (stereo unspecified) here?
Answer: inconclusive: -90.6% [activator]

Question: Which Potency does the source give for `Oc1ccc(N=Nc2ccccc2)cc1` here?
Answer: active: 17.8 µM

Question: For `CCOC(=O)c1ccccc1NC(=O)N(C(C)C)C1CCN(C(C)=O)CC1`, which “growth rescue (activation)” value is on record?
Answer: inactive: 0%

Question: With `Cn1nnc2c(N3CCN(c4ccccc4Cl)CC3)ncnc21` as the molecule, how does the Potency read?
Answer: inconclusive [activator, partial curve]

Question: Which Potency does the source give for `CSc1ccc(/C=C/C(=O)c2ccc(O)cc2)cc1` here?
Answer: active: 14.1 µM

Question: With `CCn1c(SCC(=O)NNC(=S)Nc2ccccc2)nnc1-c1ccc(Cl)cc1` as the molecule, how does the Potency read?
Answer: inconclusive [activator, partial curve]

Question: With `CCCCn1cnc2c(cnn2-c2ccc(F)cc2)c1=O` as the molecule, how does the Potency read?
Answer: inconclusive [activator, partial curve]

Question: With `Cc1ccccc1NC(=O)CSc1nc2c(c(=O)n(C)c(=O)n2C)n1Cc1ccccc1F` as the molecule, how does the “growth rescue (activation)” value read?
Answer: inactive: 26.1%

Question: For `CN(C)C(=O)c1cccc(-c2cnc3c(NC=O)cc(-c4cccc(C(F)(F)F)c4)cn23)c1`, which “growth rescue (activation)” value is on record?
Answer: inactive: 0%

Question: With `CCOCCCNc1ncnc2c1cnn2-c1ccc(C)c(C)c1` as the molecule, how does the Potency read?
Answer: active: 11.2 µM

Question: Which Potency does the source give for `Cc1ccc(C(=O)c2c(NC(=O)c3cccnc3)sc3c2CCCC3)cc1` here?
Answer: inconclusive [activator, single point]

Question: Which Potency does the source give for `COc1ccc2c(c1)C=C(C(=O)NCc1ccc(Cl)cc1)CO2` here?
Answer: inconclusive [activator, single point]

Question: Which Potency does the source give for `COc1ccc(OC)c(NC(=O)CSc2ncccn2)c1` here?
Answer: inconclusive [activator, single point]

Question: For `CC(=O)N1CCc2c(sc3c2c(=O)n(CCc2ccccc2)c(=O)n3Cc2ccc(Cl)cc2)C1`, which Potency is on record?
Answer: active: 31.6 µM

Question: With `C=C(C)Cn1c(=O)c2c(nc3n2CCN3c2cccc(Cl)c2C)n(C)c1=O` as the molecule, how does the Potency read?
Answer: inconclusive [activator, single point]

Question: Which Potency does the source give for `CCOc1ccccc1C(=O)NCC(=O)OCCOc1cccc(Cl)c1` here?
Answer: inconclusive [activator, single point]

Question: Which growth rescue (activation) does the source give for `CC(C)CC(=O)/C(=C\c1ccc(Cl)cc1Cl)n1cncn1` here?
Answer: inconclusive: -85.9% [activator]

Question: Which “growth rescue (activation)” value does the source give for `CCc1ccc(NC(=O)c2ccc3[nH]c(C)c(C)c3c2)cc1` here?
Answer: inactive: -9.72%

Question: With `CCOc1ccc(N2C(=O)C(Cl)=C(Nc3ccccc3O)C2=O)cc1` as the molecule, how does the Potency read?
Answer: inconclusive [activator, single point]

Question: For `CC(=O)c1ccc(NC(=S)Nc2ccc3cn[nH]c3c2)cc1`, which Potency is on record?
Answer: inconclusive [activator, partial curve]

Question: With `Cc1ccc(-c2nc3sc(CCNC(=O)c4ccc(C)c(C)c4)c(C)n3n2)cc1` as the molecule, how does the “growth rescue (activation)” value read?
Answer: inactive: -20%

Question: With `COC(=O)c1c(NC(=O)CN2CCC3(O)CCCCC3C2c2ccc(F)cc2)sc(C)c1C` (stereo unspecified) as the molecule, how does the Potency read?
Answer: inconclusive [activator, full curve]
